# Data published in PubChem BioAssay AID504339 (National Center for Advancing Translational Sciences (NCATS), 2011).
# Several values for one entry are separate records, joined by “and”; a condition that tells them apart may be missing. Identical values can stand only once. Screen size: about 390,000 compounds; about 17,000 (4.4%) were called active. Inconclusive results, whose numbers are uncertain, are shown with a selection of clear calls. Calls come from the whole dose curve; as a rule, active = well fitted inhibition curve with a large enough effect; inconclusive = small, poorly fitted or top-dose-only effect; inactive = no such curve, though single readings can be large or run the other way. Potencies beside an inconclusive call are fits to weak or partial responses and may not hold up.
# Target: Lysine-specific demethylase 4A (Homo sapiens) (UniProt O75164)
# Sequence of UniProt O75164 (O75164 whole entry, looked up, the tested form may be a part): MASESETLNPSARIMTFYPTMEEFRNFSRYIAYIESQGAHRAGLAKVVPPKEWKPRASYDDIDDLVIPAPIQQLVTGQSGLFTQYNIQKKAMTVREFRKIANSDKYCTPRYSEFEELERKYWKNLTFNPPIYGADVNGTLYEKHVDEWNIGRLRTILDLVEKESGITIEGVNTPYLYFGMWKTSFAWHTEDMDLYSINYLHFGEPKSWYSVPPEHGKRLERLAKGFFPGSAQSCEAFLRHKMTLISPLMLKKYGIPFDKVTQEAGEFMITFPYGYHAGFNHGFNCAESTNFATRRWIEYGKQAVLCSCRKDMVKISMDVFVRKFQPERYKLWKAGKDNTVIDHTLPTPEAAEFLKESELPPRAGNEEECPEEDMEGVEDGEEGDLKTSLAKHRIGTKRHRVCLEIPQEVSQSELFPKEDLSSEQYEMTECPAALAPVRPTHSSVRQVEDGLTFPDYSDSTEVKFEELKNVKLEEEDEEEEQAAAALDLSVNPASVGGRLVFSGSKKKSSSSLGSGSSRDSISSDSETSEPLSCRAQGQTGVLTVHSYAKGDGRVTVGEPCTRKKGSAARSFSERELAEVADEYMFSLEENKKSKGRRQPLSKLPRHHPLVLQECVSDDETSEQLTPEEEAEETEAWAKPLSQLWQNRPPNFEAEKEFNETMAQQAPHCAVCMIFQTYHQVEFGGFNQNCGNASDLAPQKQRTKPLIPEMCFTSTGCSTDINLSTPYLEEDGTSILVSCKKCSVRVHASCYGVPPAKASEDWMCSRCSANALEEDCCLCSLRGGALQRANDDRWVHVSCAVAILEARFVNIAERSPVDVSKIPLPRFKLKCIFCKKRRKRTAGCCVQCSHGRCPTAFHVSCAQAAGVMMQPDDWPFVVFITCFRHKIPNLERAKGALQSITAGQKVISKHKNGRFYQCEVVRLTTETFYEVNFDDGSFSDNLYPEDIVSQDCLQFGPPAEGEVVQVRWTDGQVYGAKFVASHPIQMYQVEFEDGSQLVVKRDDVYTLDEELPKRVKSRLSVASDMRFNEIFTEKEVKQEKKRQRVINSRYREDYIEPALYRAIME
# Experiment: qHTS Assay for Inhibitors of JMJD2A-Tudor Domain; note: nearly all actives have a fitted effect of over 50% in size
# Conditions: AlphaScreen JMJD2A-Tudor / H3K4me3 peptide binding; activity change, negative = inhibition: at 114 µM (top of the series)
# % is set by controls: 0 for no effect and ±100 for the full control effect; potency is the fitted concentration of half-maximal effect; tags give direction and shape of the fitted curve.
Compound,Potency,"activity change, negative = inhibition"
Cc1ccc(Nc2nc(N)nc(CN3CCN(C(=O)c4ccco4)CC3)n2)cc1Cl,"inconclusive: 100 µM [inhibitor, partial curve]",
CCOC(=O)c1c(NC(C)=O)sc2c(O)c(Br)cc(Br)c12,"inconclusive: 79.4 µM [inhibitor, partial curve]",
Cc1ccccc1NC(=O)Cn1nnc(-c2ccc(N3CCOCC3)cc2)n1,inactive,
CCCCCCn1c(N2CCN(c3ccccc3)CC2)nc2c1c(=O)[nH]c(=O)n2C,"inconclusive: 50.1 µM [inhibitor, partial curve]",
CCN(CC)c1ccc(NC(=O)c2ccc3c(c2)OCO3)cc1,"inconclusive: 56.2 µM [inhibitor, partial curve]",
Cc1ccccc1-c1nnc(SCC(=O)N2CCCC2)o1,inactive,
CN1CC(c2ccccc2Cl)C2(COc3ccccc3C2=O)C12C(=O)Nc1ccccc12 (stereo unspecified),"inconclusive: 44.7 µM [inhibitor, partial curve]",
CCCCCCCCOC(=O)c1c(CSC(=N)N)n(C)c2cc(Br)c(OC(C)=O)cc12,"inconclusive: 50.1 µM [inhibitor, partial curve]",
O=C(/C=C/c1ccc(Br)o1)NCc1ccccc1,"inconclusive: 100 µM [inhibitor, partial curve, poor fit]",
CCS(=O)(=O)c1ncc(N(Cc2ccco2)Cc2sccc2C)c(C(=O)Nc2ccc(C)cc2C)n1,inactive,
O=C(CC1C(=O)NCCN1Cc1ccc(F)cc1)NCCN1CCCc2ccccc21 (stereo unspecified),"inconclusive: 89.1 µM [inhibitor, partial curve]",
COc1cc(C(=O)OCC(=O)N2c3ccccc3NC(=O)C2(C)C)ccc1OCC(C)C,"inconclusive: 89.1 µM [inhibitor, partial curve]",
COC(=O)CCC(=O)Nc1ccccc1C(=O)Nc1ccccc1,inactive,
CCn1c(COc2ccc(Cl)cc2)nnc1SC1CCc2ccccc2C1=O (stereo unspecified),"inconclusive: 63.1 µM [inhibitor, single point]",
c1ccc(-c2nccc(-c3ccc(-n4cnc5ccccc54)cc3)n2)cc1,,inactive: -17.6% [at 11.4 µM]
Cn1c(=O)[nH]c(=O)c2c1nc(SCC(=O)O)n2Cc1ccccc1,active: 25.1 µM,
Cc1cc(F)cc(C)c1Cn1cnc2c(cnn2C(C)(C)C)c1=O,inactive,
CC(=O)c1c(C)[nH]c(C(=O)Nc2nc(-c3ccc(-c4ccccc4)cc3)cs2)c1C,"inconclusive: 11.2 µM [inhibitor, partial curve]",
CC(C)=CCCC1(C)C=Cc2c(ccc3c2[nH]c2cc(O)c(C)cc23)O1 (stereo unspecified),active: 44.7 µM,
COc1ccccc1NC(=O)CCN1C(=O)/C(=C\c2cc(OC)c(OC)c(OC)c2)SC1=S,inactive,
Cc1ccc(Cl)c(OCCCCN2CCC(C)CC2)c1,inactive,
Cn1c(=O)n(C)c2cc([N+](=O)[O-])c(N3CCN(S(=O)(=O)c4ccc(C(C)(C)C)cc4)CC3)cc21,inactive,
Nc1ccc(N2CCCCC2)c(S(=O)(=O)Nc2ccccc2Cl)c1,"inconclusive: 50.1 µM [inhibitor, single point]",
CCOc1cc2[nH]c(=S)n(CCCN3CCOCC3)c(=O)c2cc1OCC,active: 56.2 µM,

Compound,Potency,"activity change, negative = inhibition"
Cn1c2ccccc2c2c(C(=O)N3CCN(c4ccc(F)cc4)CC3)cn(C3CCCC3)c(=O)c21,"inconclusive: 56.2 µM [inhibitor, partial curve]",
COc1ccc(C2Nc3ccccc3C(=O)N2Cc2cccc(C(F)(F)F)c2)cc1COc1ccc(NC(C)=O)cc1 (stereo unspecified),"inconclusive: 50.1 µM [inhibitor, partial curve]",
COc1ccc(/C=C2\CC/C(=C\c3ccc(OC)c(OC)c3)C2=O)cc1OC,"inconclusive: 8.91 µM [inhibitor, full curve, poor fit]",
Cc1cc(C)nc(NS(=O)(=O)c2ccc(N=Cc3c(C)[nH]n(-c4ccccc4)c3=O)cc2)n1,active: 79.4 µM,
CSCCC(NC(N)=O)C(=O)Nc1ccc(F)c(Cl)c1 (stereo unspecified),inactive,
COc1ccc(N2CCN(C(=O)CN(c3cccc(Br)c3)S(C)(=O)=O)CC2)cc1,"inconclusive: 89.1 µM [inhibitor, partial curve]",
CCN(C[C@H]1N[C@@](C)(C(=O)OC)[C@H]2C(=O)N(C)C(=O)[C@@H]12)S(=O)(=O)c1ccc(C(F)(F)F)cc1,inactive,
COc1ccccc1C1Nc2cccc3cccc(c23)N1,active: 50.1 µM,
COc1ccc(N2CCN(C(=O)c3cc4c(=O)n(Cc5ccccc5)ccc4nc3C)CC2)cc1,"inconclusive: 50.1 µM [inhibitor, partial curve] and inconclusive: 39.8 µM [inhibitor, full curve]",
Cc1ccc(CN2CCSc3ccc(C(=O)Nc4ccc(F)cc4F)cc32)cc1,inactive,
O=C(OCc1ccc(Br)cc1)c1cccc(S(=O)(=O)N2CCCC2)c1,inactive,
CC(=O)Nc1ccc(NC(=O)C(C)n2nc(C)c([N+](=O)[O-])c2C)cc1 (stereo unspecified),inactive,
CC(C)OC(=O)c1cc2c(ccn2C)n1CC(=O)N1CCC(Cc2ccccc2)CC1,"inconclusive: 31.6 µM [inhibitor, single point]",
O=C(CSC(=S)N1CCCC1)N1CCN(S(=O)(=O)c2cccc(F)c2)CC1,"inconclusive: 89.1 µM [inhibitor, single point]",
COc1ccc(CNc2nc(-c3ccccc3)nn2C(=O)c2ccc([N+](=O)[O-])cc2)cc1,"inconclusive: 35.5 µM [inhibitor, single point]",
Cc1c(Oc2ccc(C(F)(F)F)cc2[N+](=O)[O-])ccc2c3c(c(=O)oc12)CCC3,"inconclusive: 5.01 µM [inhibitor, partial curve]",
O=C(NC(=S)N1CCN(c2nc(-c3ccccc3)cs2)CC1)c1cncc(Br)c1,"inconclusive: 56.2 µM [inhibitor, partial curve]",
O=[N+]([O-])c1ccccc1-c1cc(-c2cc(Cl)ccc2O)n[nH]1,"inconclusive: 44.7 µM [inhibitor, partial curve]",
CCOc1ccccc1CNCc1ccc(F)cc1,inactive,
CCCCN(CCCC)S(=O)(=O)c1ccc(OC)c2ncccc12,inactive,
CC(=O)N(/N=C1\Sc2ccccc2C1=O)c1ccccc1C,"inconclusive: 39.8 µM [inhibitor, full curve]",
COc1ccc(-c2csc(NC(C)c3nc4cc(Cl)c(N5CCCCC5)cc4n3CCOCCO)n2)cc1 (stereo unspecified),"inconclusive: 50.1 µM [inhibitor, partial curve]",
COCC(C)n1c(SCC(=O)NC(=O)NC2CCCC2)nc2ccccc2c1=O (stereo unspecified),inactive,
CCN(Cc1ccccc1)C(=O)C1CCN(C/C(C)=C/c2ccccc2)CC1,active: 15.8 µM,

Compound,Potency,"activity change, negative = inhibition"
O=[N+]([O-])c1ccccc1-c1ccc(C(=S)N2CCCCC2)o1,active: 44.7 µM,
CCCn1c(-c2ccc(F)cc2)n[nH]c1=S,active: 5.62 µM,
Cc1ccc(C)n1-c1sccc1C(=O)O,"inconclusive: 6.31 µM [inhibitor, partial curve, poor fit]",
CCc1ccccc1NC(=O)CN1CCN(CC(=O)Nc2ccc3c(c2)OC2(CCCCC2)O3)CC1,"inconclusive: 39.8 µM [inhibitor, partial curve]",
CCOc1ccc(NC2c3ccccc3C(=O)N2Cc2ccco2)cc1 (stereo unspecified),active: 44.7 µM,
CCN(CC)c1ccc(/C=N/Nc2nc(C)cc(C)n2)c(O)c1,active: 50.1 µM,
COc1ccc(N2CCN(C(c3cccs3)C(C)NC(=O)C(=O)N3CCCC3)CC2)cc1 (stereo unspecified),"inconclusive: 79.4 µM [inhibitor, partial curve]",
Cc1ccc2nc(NC(=O)CNS(=O)(=O)c3ccc(Br)s3)sc2c1,active: 50.1 µM,
CCOc1cc(NC(=S)Nc2ccccc2)c(OCC)cc1NC(=O)c1ccc(OC)cc1,"inconclusive: 14.1 µM [inhibitor, full curve]",
CC(=O)c1cccc(NC(=O)c2nc(-c3ccc(C)cc3)n3c2CCCCC3)c1,inactive,
CC(C)(C)c1ccc(/C=N/NC(=O)c2ccccn2)cc1,inactive,
CCc1nnc(NS(=O)(=O)c2ccc(N3C(=O)C4CC=C(Cl)CC4C3=O)cc2)s1 (stereo unspecified),"inconclusive: 89.1 µM [inhibitor, partial curve]",
Cc1c(-c2ccc(F)cc2)nc(N)c(C#N)c1-c1cccnc1,inactive,
Cc1cc2c(SCC(=O)Nc3cccc(O)c3)ncnc2s1,active: 50.1 µM,
Nc1ccccc1Nc1cc(-c2ccccc2)nn1-c1ccccc1,active: 31.6 µM,
Cc1ccc(C2c3[nH]c4ccccc4c3CCN2C(=O)Nc2ccc(C)c(C)c2)cc1 (stereo unspecified),"inconclusive: 44.7 µM [inhibitor, partial curve]",
CN(C)/C(=N\OC(=O)c1ccccc1)c1nonc1N,"inconclusive: 17.8 µM [inhibitor, full curve]",
Cc1ccc(/C=N/Nc2cccc3cccnc23)c(O)c1,"inconclusive: 63.1 µM [inhibitor, partial curve, poor fit]",
NC(=O)c1c(NC(=O)c2ccc([N+](=O)[O-])o2)sc2c1CCCC2,inactive,
CN(C1=C(N2CCCCC2)C(=O)c2ccccc2C1=O)c1ccccc1,active: 3.98 µM,
CCc1ccc(C2C(C(=O)Nc3ccc(Cl)cc3)=C(C)Nc3ncnn32)cc1 (stereo unspecified),inactive,
CCN(CC)S(=O)(=O)c1cccc(NC(=O)C2SC(=Nc3ccc(C)cc3C)C(C(=O)NC(C)COC)=C2N)c1 (stereo unspecified),"inconclusive: 44.7 µM [inhibitor, partial curve]",
COc1ccc(/C=C/c2ccccc2)cc1C1C2C=CCC(C)C2C(=O)N1Cc1ccccc1 (stereo unspecified),"inconclusive: 39.8 µM [inhibitor, full curve, poor fit]",
